Results: PubChem BioAssay AID1346428 (National Center for Advancing Translational Sciences (NCATS), 2018)
Several values for one entry are separate records, joined by “and”; a condition that tells them apart may be missing. Equal values may be shown once. The whole screen tested about 48,000 compounds, of which about 1,200 (2.5%) were called active. Inconclusive results (about 2%) are left out.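 How the source made its calls: active means activation of at least 60% and not above a set upper limit (about 1 call in 100 departs from these limits); inconclusive means activation of 40% to 60%, or above that upper limit; inactive means activation under 40%.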 This is one part of the list.

What follows are molecules tested against Probable G-protein coupled receptor 32 (Homo sapiens) (UniProt O75388) (assay: qHTS for Agonists of Human Resolvin D1 Receptor DRV1). Conditions: CHO-K1 GPR32 beta-arrestin PathHunter luminescence, 90 min; at 76.9 µM; stronger effect = higher value; zero percent set by DMSO-only wells.
UniProt O75388, sequence (O75388 whole entry, looked up): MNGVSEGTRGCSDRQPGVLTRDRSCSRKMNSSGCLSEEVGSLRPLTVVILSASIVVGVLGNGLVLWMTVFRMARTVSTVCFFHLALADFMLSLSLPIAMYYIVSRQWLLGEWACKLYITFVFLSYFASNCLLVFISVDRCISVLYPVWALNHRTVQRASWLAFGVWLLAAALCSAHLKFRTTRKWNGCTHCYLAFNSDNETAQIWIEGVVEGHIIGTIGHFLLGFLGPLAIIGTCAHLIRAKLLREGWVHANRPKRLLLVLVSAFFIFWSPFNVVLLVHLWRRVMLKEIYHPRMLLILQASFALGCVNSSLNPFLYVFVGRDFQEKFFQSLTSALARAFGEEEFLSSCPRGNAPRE
Outline: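 Readings come from a cell-based beta-arrestin complementation format: CHO-K1 GPR32 stable cells (2,500/well) treated 90 min with compounds, then beta-Gal substrate added for 1 h before chemiluminescence imaging.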
Further: 0% is about no effect.

Row | Compound | activation
1 | CCn1c(CNC(=O)c2ccc(OC)cc2)nnc1SCC(=O)Nc1ccccc1 | inactive: 22.1%
2 | COC(=O)c1ccc(NC(=O)CCc2c(C)nc3c(-c4ccccc4)c(C)nn3c2C)cc1 | inactive: 22.7%
3 | CN(C)CCCN1c2ccccc2Sc2ccc(C(F)(F)F)cc21 | inactive: 47.5% and inactive: -15.4%
4 | CCOC(=O)Cn1c(=O)n(CC2CCCO2)c2nc(-c3ccccc3F)nc(C(N)=O)c21 (configuration not stated) | inactive: -13.4%
5 | Cc1cccc(NC(=O)c2cc(S(=O)(=O)NCc3ccc4c(c3)OCO4)ccc2F)c1C | inactive: -11.3%
6 | Cc1ccc(Cn2cc(C(=O)c3ccc(F)cc3)c(=O)c3cc4c(cc32)OCO4)cc1 | inactive: 6.69%
7 | COc1ccc(CNS(=O)(=O)c2cc3c(cc2C)N(C)CCO3)cc1 | inactive: -3.81%
8 | COc1ccc(Cn2c(CNS(=O)(=O)c3ccc(C)c(C)c3)nc3cccnc32)cc1 | inactive: -23.8%
9 | CCn1nnc2cc(C(=O)Nc3cccc(Cl)c3C)ccc21 | inactive: 1.42%
10 | COc1ccccc1-n1c(=O)c2c3c(sc2n(C)c1=O)CN(C(C)=O)CC3 | inactive: -0.951%
11 | CCOC(=O)Cc1ccc(NC(=O)Nc2ccccc2OCc2cc(=O)n3ccccc3n2)cc1 | inactive: -11.5%
12 | O=C(NCc1ccc2c(c1)CCN2C(=O)c1ccccc1)Nc1cc(F)ccc1F | inactive: -12.1%
13 | COc1ccc(-c2noc(-c3ccc(N4CCCC4)c([N+](=O)[O-])c3)n2)cc1 | inactive: 4.49%
14 | COc1ccc(C)cc1S(=O)(=O)NCC(c1cccs1)S(=O)(=O)c1ccc(C)cc1 (configuration not stated) | inactive: -27.7%
15 | CC(Oc1ccc(F)cc1)C(=O)Nc1nc(-c2ccc(F)cc2)ns1 (configuration not stated) | inactive: 29%
16 | CCN1CCN(c2ncnc3c2cnn3-c2ccc(C)c(Cl)c2)CC1 | inactive: 11.6%
17 | COc1ccc(-c2nc3scc(CCNS(=O)(=O)c4ccccc4F)n3n2)cc1 | inactive: 16.2%
18 | Cc1ccc(NS(=O)(=O)c2cnc(N)nc2)c(C)c1 | inactive: -16.4%
19 | CCN(CC)CCNC(=O)C1CCN(c2cc(C)nc3c(-c4ccc(Cl)cc4)c(C)nn23)CC1 | inactive: -1.74%
20 | O=C(NCCc1nc2ccccc2n1Cc1ccccc1)c1ccco1 | inactive: -17.2%
21 | Cc1nc(-n2nc(C)c(Cc3ccc4c(c3)OCO4)c2C)sc1C(=O)Nc1cccc(Cl)c1 | inactive: -16.2%
22 | CCc1nn(CC(=O)Nc2cc(C)cc(C)c2)c(=O)c2cc3sccc3n12 | inactive: 5.65%

Row | Compound | activation
23 | CCN(CC)CCNC(=O)c1cc(-c2ccc(Br)s2)nc2ccccc12 | inactive: 12.6%
24 | Cc1ccc(CN2CCCn3nc(C(=O)NCc4ccc(OC(C)C)cc4)cc3C2=O)cc1 | inactive: 24.9%
25 | O=Cc1ccccc1C=O | inactive: 6.35%
26 | CCOc1ccccc1NC(=O)N1CCN(C)c2ncccc21 | inactive: 4.88%
27 | Cc1ccc(NC(=O)CSc2n[nH]c(-c3ccc(F)cc3)n2)cc1F | active: 66.8%
28 | CSc1cccc(NC(=O)CC(c2cccs2)N2Cc3ccccc3C2=O)c1 (configuration not stated) | inactive: 2.71%
29 | COc1cc(-c2noc(CN3CCN(c4cccc(Cl)c4)CC3)n2)cc(OC)c1OC | inactive: 39.1%
30 | CCOC(=O)c1cccc(NC(=O)c2ccc3nc(C(C)C)oc3c2)c1 | inactive: -19.8%
31 | CSc1ccc(CCNC(=O)CCc2c(C)nc3c(c(C)nn3-c3ccc(C)c(C)c3)c2C)cc1 | inactive: 10.1%
32 | CCC(C(=O)Nc1nnc2n1CCS2)c1ccccc1 (configuration not stated) | inactive: 18%
33 | Cc1ccc(CN2C(=O)CN(C3CCC(C)CC3)C(=O)C2c2ccc(F)cc2)cc1 (configuration not stated) | inactive: -23.7%
34 | O=C(Nc1cccc(Cl)c1Cl)c1cc2nc(-c3ccc(Cl)cc3)cc(C(F)(F)F)n2n1 | inactive: 12.5%
35 | CCCN(CCC)CCNC(=O)c1cc2c(-c3ccc(Cl)cc3)nn(C)c2s1 | inactive: -5.37%
36 | COc1ccc(Cn2c(=O)n(-c3ccccc3C)c(=O)c3c4c(sc32)CN(C(C)=O)CC4)cc1 | inactive: -18.8%
37 | COc1ccc(-n2nc(C(=O)Nc3ccc(Cl)cn3)c3c4ccccc4n(C)c3c2=O)cc1Cl | inactive: -1.45%
38 | Cc1cccc(NC(=O)c2sc3nc4c(cc3c2N)CCCCCC4)c1C | inactive: -4.72%
39 | COC(=O)c1c(NC(=O)Cc2coc3ccc(C)cc23)sc2c1CCC2 | inactive: -5.08%
40 | C/C(=N\O)c1ccc(OCC(=O)N2CCCCC2)cc1 | inactive: -2.59%
41 | Cc1ccc(C(=O)c2ccc(CC(=O)O)n2C)cc1 | inactive: -24.6%
42 | Cc1cc(F)ccc1-n1nnc(C(N)=O)c1C | inactive: 0.629%
43 | Cc1ccccc1Nc1c(-c2cccc(N(C)C)c2)nc2ccc(Br)cn12 | inactive: -22.6%
44 | CC(=O)c1cccc(NC(=O)c2c(-c3ccccc3)c(-c3ccccc3)nn(C)c2=O)c1 | inactive: -24%

Row | Compound | activation
45 | CN(Cc1ccccc1)c1ccc(-c2nc(-c3ccco3)no2)cc1[N+](=O)[O-] | inactive: 5.81%
46 | O=C(c1ccccc1Cl)N(Cc1ccco1)Cc1ccco1 | inactive: -17.3%
47 | Cc1ccc(CCNC(=O)c2cc(Nc3ccc(C)c(C)c3)nc3ccccc23)cc1 | inactive: 20.9%
48 | COc1ccc(C2C(C(N)=O)=C(C)Nc3nc(CCCO)nn32)cc1 (configuration not stated) | inactive: 5.92%
49 | Cc1cc(=O)n(CC(=O)Nc2ccc([N+](=O)[O-])cc2)c(-n2nc(C)cc2C)n1 | inactive: -15.1%
50 | CCOC(=O)c1ccc(NC(=O)CC2C(=O)N(c3ccc(C)cc3)C(=O)N2C2CCCCC2)cc1 (configuration not stated) | inactive: 4.71%
51 | Cc1cc(C(F)(F)F)nn1-c1nc(-c2ccccc2)cc(C(F)(F)F)n1 | inactive: -3.7%
52 | CCCCN(CCCC)CCCOC(=O)c1ccc(N)cc1 | inactive: 6.9%
53 | COc1ccc(CCN2C(=O)c3[nH]nc(-c4ccccc4O)c3C2c2cccc(OC)c2)cc1 (configuration not stated) | inactive: -15.2%
54 | Cc1ccccc1NC(=O)Cn1c(=O)n(CCc2ccccc2)c(=O)c2sc3ccccc3c21 | inactive: 4.6%
55 | Cc1[nH]c2ccccc2c1C(c1ccccc1)c1cccs1 (configuration not stated) | active: 73.6%
56 | Cc1cccc(-n2c(SCc3nc(-c4ccccc4C)no3)nnc2-c2ccccc2)c1 | inactive: 2.77%
57 | CN1CCN(c2oc(/C=C/c3ccc(F)cc3)nc2C#N)CC1 | inactive: -14.8%
58 | FC(F)(F)C(Cl)Br (configuration not stated) | inactive: -8.36%
59 | O=C(O)CN1C(=O)c2cccc3cccc(c23)C1=O | inactive: -0.204%
60 | CCc1nn(CC(=O)NC(C)CC)c(=O)c2cc3c(OC)cccc3n12 (configuration not stated) | inactive: -7.83%
61 | COc1cc(NC(=O)c2nn(-c3ccc(C)cc3)c(=O)c3c2c2ccccc2n3C)cc(OC)c1OC | inactive: -5.03%
62 | CCOC(=O)c1ccccc1NS(=O)(=O)c1ccc(N2CCCCS2(=O)=O)cc1 | inactive: -2.43%
63 | COc1ccc(-c2noc(-c3ccc(N4CCN(c5ccc(OC)cc5)CC4)c([N+](=O)[O-])c3)n2)cc1 | inactive: -0.499%
64 | CCOc1ccc(-n2nc(CO)c(C(=O)NCc3cccnc3)n2)cc1 | inactive: -1.31%
65 | CC[N+](C)(CC)CCOC(=O)C1c2ccccc2Oc2ccccc21 | inactive: -17.3%
66 | COc1cc(C)ccc1OCCCn1c(-c2ccc(Cl)cc2)nc2ccccc2c1=O | inactive: 7.59%

Row | Compound | activation
67 | Cc1cccn2c(=O)c(C(=O)NCc3ccccc3Cl)c(O)nc12 | inactive: -11.1%
68 | COc1cccc(N2CCN(C(=O)c3cc4c(=O)n(Cc5ccccc5)ccc4nc3C)CC2)c1 | inactive: 23.9%
69 | COC(=O)c1cccc(Cn2nnc3sc4c(c3c2=O)CCC(C(C)(C)C)C4)c1 (configuration not stated) | inactive: 11.2%
70 | O=C(COc1ccccc1)NCCc1csc(-c2cccc(F)c2)n1 | inactive: 45.6%
71 | COc1ccc(CCNC(=O)CCCCn2c(=O)c3ccccc3n(CC(=O)Nc3ccc(C)cc3C)c2=O)cc1OC | inactive: 1.8%
72 | Cc1ccc(C)c(Nc2nc(-c3ccccc3)c3cc(Br)ccc3n2)c1 | inactive: 15.7%
73 | CCN1C(=O)C(Cc2nc3ccccc3c(=O)n2-c2ccc(OC)cc2)c2cc(C)ccc21 (configuration not stated) | inactive: -20.2%
74 | N#Cc1cccc(NC(=O)Cn2nc(Cc3ccncc3)c3ccccc3c2=O)c1 | inactive: -18.8%
75 | Cc1cccc(N(C)C(CNS(=O)(=O)c2ccccc2)c2ccccc2)c1 (configuration not stated) | inactive: -3.36%
76 | Cc1cccc(C(=O)Nc2cccc(OCc3cc(=O)n4cccc(C)c4n3)c2)c1 | inactive: -11%
77 | Cc1nnc(N2CCCC(C(=O)Nc3cccc(C(F)(F)F)c3)C2)c2nn(-c3ccccc3)c(C)c12 (configuration not stated) | inactive: 47.9%
78 | O=C(Nc1cccc(Cl)c1)c1cc(-c2ccc3c(c2)OCCO3)on1 | inactive: 22.8%
79 | CCN(CC)CCNC(=O)C(=O)NCC(c1cccnc1)N1CCN(c2ccccc2)CC1 (configuration not stated) | inactive: -6.16%
80 | Cc1cc(Sc2ccc(Cl)cc2)nc2ccccc12 | inactive: 0.791%
81 | CC(C)(C)OC(=O)N1CCC(c2c(C(=O)NC3CCCCC3)cnn2-c2cccc(F)c2)CC1 | inactive: -7.85%
82 | O=C(CSc1ccccc1)NCc1ccc2c(c1)CCN2C(=O)c1ccc(Cl)cc1 | inactive: -22.1%
83 | O=C(COc1ccccc1)NCc1ccc2c(c1)CCN2C(=O)c1ccccc1 | inactive: -21.2%
84 | Cn1nnnc1SCCNCc1ccc(OCc2ccccc2Cl)cc1 | inactive: 10.4%
85 | CC(NC(=O)c1ccc(NC(=O)c2nsc3ccccc23)cc1)c1ccccc1 (configuration not stated) | inactive: -13.1%
86 | Cc1cccc(C(=O)Nc2cccc(C(=O)OCc3cc(=O)n4nc(C(C)C)sc4n3)c2)c1 | inactive: -6.25%
87 | CC(O)CN(CCN(CC(C)O)CC(C)O)CC(C)O (configuration not stated) | inactive: -24.1%
